Hit rate of the full screen: of about 360,000 compounds, about 6,000 (1.7%) were called active. The shares of active, inactive and inconclusive entries below differ from those in the screen. Calls follow the shape of the dose curve; as a rule, active = well fitted cell-killing curve with a large enough effect; inconclusive = small, poorly fitted or top-dose-only effect, or effect the other way; inactive = flat fitted curve, though single readings scatter. Potencies of inconclusive entries are left out as doubtful fits.
Assay: qHTS for induction of synthetic lethality in tumor cells producing 2HG: qHTS for the HT-1080-NT fibrosarcoma cell line;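 also: NT is the 2HG producing partner of a matched IDH1 knockdown line; nearly all actives have a fitted effect of over 55% in size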;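 as to activity, negative = less viability: 0% = DMSO-treated cells and -100% = media-only wells without cells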
Settings: HT-1080-NT fibrosarcoma viability, CellTiter-Glo ATP luminescence, 48 h; activity, negative = less viability: at 46.1 µM (top of the series) unless noted
How it was run: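 A 48-hour cytotoxicity screen used HT-1080-NT cells plated 2 hours before compound delivery. ATP-based CellTiter-Glo luminescence measured viability, normalized to DMSO and no-cell controls.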
Potency is read from the fitted curve at half-maximal effect; tags tell the direction and shape of the fitted curve.

| SMILES | activity, negative = less viability | Potency |
| --- | --- | --- |
| COc1ccc(/C=C/c2c([N+](=O)[O-])c(=O)n(C)c(=O)n2C)cc1OC | inactive: 20% | – |
| O=C(Nc1ccc(OCC(F)(F)C(F)F)c(C(F)(F)F)c1)c1ccc(Cl)cc1 | – | active: 25.9 µM |
| Cc1ccc(C)c(Oc2cc(NN3CCCCC3)c([N+](=O)[O-])cc2[N+](=O)[O-])c1 | inactive: 13.9% | – |
| CC(=O)c1c(C)[nH]c(C(=O)OCC(=O)Nc2ccc(Cl)cc2[N+](=O)[O-])c1C | – | active: 18.4 µM |
| COC(=O)c1sc(NC(=O)c2cccc([N+](=O)[O-])c2)c(C(N)=O)c1C | – | inconclusive [cytotoxic, full curve, poor fit] |
| CCCCN(CCCC)c1ccc(C(=O)c2ccccc2C(=O)O)c(O)c1 | – | inconclusive [cytotoxic, single point] |
| COc1ccc(/C=N/NC(=O)c2cccnc2)cc1CSc1nc2ccccc2s1 | – | inconclusive [cytotoxic, partial curve] |
| Cc1cccnc1NC(=S)NC(=O)c1cncc(Br)c1 | – | active: 7.94 µM |
| Cc1nc2ccc(C(=O)NCCc3c[nH]c4ccccc34)cn2c1N(C)C(=O)CCc1ccccc1 | inactive: 0.86% | – |
| CC1(C)Cc2nc3sc4c(=O)n(CC(=O)NCc5ccco5)cnc4c3cc2CO1 | – | inconclusive [cytotoxic, single point] |
| O=CNc1cc(-c2ccc(C(=O)NC3CC3)cc2)cn2c(-c3ccccc3)cnc12 | – | active: 6.51 µM |
| O=C(N/N=C/c1ccc[nH]1)c1cc(-c2ccc(Cl)cc2)nc2ccccc12 | – | inconclusive [cytotoxic, single point] |
| COc1ccc(CNc2oc(Cc3cccc4ccccc34)nc2C#N)cc1 | – | inconclusive [cytotoxic, single point] |
| Cc1nc(C(F)(F)F)ccc1C(=O)N1CCC(C)(C(=O)O)C1 (configuration not stated) | – | inconclusive [rising, single point] |
| C(=C\CSc1nnnn1-c1ccccc1)/CSc1nnnn1-c1ccccc1 | inactive: 5.81% | – |
| CCc1c(C)nc(N2CCOCC2)[nH]c1=O | inconclusive: 12.6% | – |
| COc1ccc(S(=O)(=O)Nc2cccc3c2O[C@H](CN(C)Cc2ccccc2)[C@@H](C)CN([C@H](C)CO)C3=O)cc1 | inactive: -3.45% | – |
| O=S(=O)(CCSc1ccccn1)c1nc2ccccc2s1 | – | active: 20 µM |
| CCCc1nc2ccccc2n1Cc1ccccc1OC | – | inconclusive [cytotoxic, single point] |
| [N-]=[N+]=NCC/C=C\C1NS(=O)(=O)OCC1O (configuration not stated) | inactive: 0% | – |
| CSc1ccccc1NC(=O)C1(C)CCN1C(=O)Cc1ccc(-c2ccccc2)cc1 (configuration not stated) | – | inconclusive [cytotoxic, single point] |
| CCOc1ccc(/C=N/NC(=O)c2[nH]ncc2Br)c(O)c1 | – | active: 7.31 µM |
| Cc1cc(C)cc(CSCC(=O)N/N=C/c2ccc(OCC(=O)NCc3ccco3)cc2)c1 | – | inconclusive [cytotoxic, single point] |
| CCc1c(O)nc(SCC(=O)N2CCc3cc(OC)c(OC)cc3[C@@H]2C)[nH]c1=O | inactive: -2.24% | – |

| SMILES | activity, negative = less viability | Potency |
| --- | --- | --- |
| O=C(NC(c1ccc(F)cc1)c1ccc2ccccc2n1)C1CCN(Cc2ccc3ccccc3n2)CC1 (configuration not stated) | – | inconclusive [cytotoxic, single point] |
| CC(C)(C)c1ccc(C(=O)NCC2CCCN2S(=O)(=O)c2ccccc2)cc1 (configuration not stated) | – | inconclusive [cytotoxic, single point] |
| O=C(CC(=O)Nc1nc(C23CC4CC(CC(C4)C2)C3)cs1)NCCO | inconclusive: -30.9% [cytotoxic] | – |
| Cc1ccc(OCCCCNC(C)c2ccccc2)c(C)c1 (configuration not stated) | – | inconclusive [cytotoxic, single point] |
| O=C(Nc1cccc(Cl)c1)c1csc([C@@H]2O[C@H](CO)[C@H](O)[C@H](O)[C@H]2O)n1 | inactive: -0.981% | – |
| O=C(N/N=C/c1sc2ccccc2c1O)c1cccc2ccccc12 | – | inconclusive [cytotoxic, partial curve] |
| CCCCN1C(=O)C(CC(=O)NCCCCc2ccccc2)CC(C(=O)N(C)C)=C1C (configuration not stated) | inactive: 1.25% | – |
| CCC1CCc2sc(C(=O)NCC(c3ccc(OC)cc3)N3CCCC3)cc2C1 (configuration not stated) | – | inconclusive [cytotoxic, single point] |
| CCOC(=O)[C@]12CCC=C1N(Cc1ccccc1)C(=O)[C@H](CC(=O)NCc1cccc(C(F)(F)F)c1)C2 | – | inconclusive [cytotoxic, single point] |
| O=[N+]([O-])c1cccnc1S(=O)(=O)c1ccccc1 | – | active: 11.6 µM |
| COc1ccc(CCNC(=O)c2nnn(CC(=O)Nc3ccc(C)cc3C)c2N)cc1OC | – | inconclusive [cytotoxic, single point] |
| Cc1cc(C)c2c(N)c(C(=O)c3ccccc3Cl)sc2n1 | inactive: -7.89% | – |
| O=[N+]([O-])c1ccc(COc2ccc(-c3[nH]ncc3-c3ccc(Cl)cc3)c(O)c2)cc1 | – | inconclusive [cytotoxic, single point] |
| COc1cc(C(=O)NC(=S)Nc2ccc3[nH]c(=O)[nH]c3c2)cc(OC)c1OC | – | inconclusive [cytotoxic, single point] |
| CC(=O)Nc1ccc(NC(=O)C2(C)Cc3c(-c4ccccc4)ccnc3O2)cc1 (configuration not stated) | inconclusive: 16.6% | – |
| CCn1cc([N+](=O)[O-])c(C(=O)Nc2nc3ccc(OC)cc3s2)n1 | – | inconclusive [cytotoxic, single point] |
| c1csc(-c2noc(CN3CCc4sccc4C3)n2)c1 | inactive: 19.4% | – |
| COC(=O)c1cc(=O)n(-c2ccc(F)cc2)c(=Nc2ccc(F)cc2)s1 | – | inconclusive [cytotoxic, single point] |
| CN(C)c1nc(N(C)C)nc(N(C#N)Cc2ccc(Cl)cc2)n1 | inactive: 7.42% | – |
| CC1=Nc2cc(C(=O)NCCCOC(C)C)ccc2Sc2ccc(C)cc21 | – | active: 0.731 µM |
| CCC(=O)N1CCN(c2nc3ccc(Br)cc3s2)CC1 | – | inconclusive [cytotoxic, single point] |
| CCCSc1nc(=S)n(Cc2ccccc2)c(C)c1C(C)=O | inactive: -8.24% | – |
| O=C1C(=Cc2ccco2)CCCC1=Cc1ccco1 | inactive: 1% | – |
| O=Cc1[nH]c2ccccc2c1N(C(=O)CCl)c1ccccc1 | – | active: 16.4 µM |

| SMILES | activity, negative = less viability | Potency |
| --- | --- | --- |
| CCC1=NN(C(=O)c2cccnc2)C(O)(C(F)(F)F)C1 (configuration not stated) | inconclusive: 35.8% | – |
| O/N=C/c1cc(Cl)ccc1OCc1ccccc1Cl | – | inconclusive [cytotoxic, single point] |
| O=C1c2ccc(Cl)cc2S(=O)(=O)c2cccc(C(=O)N3CCC(Cc4ccccc4)CC3)c21 | – | inconclusive [cytotoxic, single point] |
| COc1ccc(-c2ccc(=O)n(Cc3cccc([N+](=O)[O-])c3)n2)cc1 | – | inconclusive [cytotoxic, single point] |
| Cn1c(NC(=O)C[n+]2cc(-c3ccc(Cl)cc3)n3c2CCC3)cc(=O)n(C)c1=O | – | inconclusive [rising, single point] |
| O=S1(=O)C=C(SCc2ccc(Cl)c(Cl)c2)Nc2ccccc21 | – | inconclusive [cytotoxic, single point] |
| COc1cccc(CNC(=O)[C@@H]2CCCN2C(=O)[C@H]2CCCCN2C(=O)c2ccccc2C)c1 | inactive: 10.5% | – |
| O=C(CCc1nnc2n(Cc3ccccc3)c(=O)c3ccccc3n12)NCCN1CCOCC1 | inactive: 4.9% | – |
| CC(C)(C)c1ccc(C(=O)O/N=C(\N)c2ccccn2)cc1 | – | inconclusive [cytotoxic, single point] |
| COC(=O)/C=C/c1ccccc1S(=O)(=O)N(Cc1ccccc1)Cc1ccco1 | – | active: 4.61 µM |
| CC12CCC(=O)C=C1CCC1C2CCC2(C)C(c3csc(N)n3)CCC12 (configuration not stated) | – | inconclusive [cytotoxic, single point] |
| Cc1onc(-c2ccccc2)c1C(=O)N1CCCC(C)(C(=O)NS(=O)(=O)C2CC2)C1 (configuration not stated) | inactive: 4.46% | – |
| CC(C)(C)C(=O)/C=c1\[nH]c(=O)/c(=C\c2ccc(F)cc2)s1 | – | inconclusive [cytotoxic, partial curve] |
| CC(CNC1CCCCC1)OC(=O)c1ccc([N+](=O)[O-])cc1 (configuration not stated) | inactive: 4.72% | – |
| CCCCc1c(-c2ccccc2OC)ncn1CCc1ccccc1 | – | active: 18.4 µM |
| Cc1ccnc(NC(=O)COc2c(C)cc(C)cc2[N+](=O)[O-])c1 | – | inconclusive [rising, partial curve] |
| COC(=O)c1ccccc1NC(=O)CSc1nc(-c2ccco2)cc(C(F)(F)F)n1 | – | inconclusive [cytotoxic, full curve] |
| COc1ccccc1N(C)S(=O)(=O)c1ccc(C(=O)NC(C)(C)C)cc1 | inactive: 10.2% | – |
| O=C1CC(/C=C/c2ccco2)=Nc2ccccc2N1 | inactive: 1.3% | – |
| Cc1ccc2cc(CN(CCN(C)C)C(=O)Nc3ccc(Cl)cc3)c(=O)[nH]c2c1 | inconclusive: -3.94% [cytotoxic] | – |
| Cc1ccccc1CN1CCc2c(OCC(=O)N3CCCc4ccccc43)cccc2C1=O | – | inconclusive [cytotoxic, single point] |
| COc1ccc([N+](=O)[O-])cc1NC(=O)c1ccc(N(Cc2ccccc2Cl)S(C)(=O)=O)cc1 | inactive: -0.784% | – |
| O=C(Nc1ccccc1)c1nc2ccccc2s1 | – | inconclusive [cytotoxic, partial curve] |
| C/C=C(/C)C(=O)O[C@@H]1c2c(ccc3ccc(=O)oc23)OC(C)(C)[C@@H]1OC(=O)/C(C)=C\C | – | inconclusive [cytotoxic, single point] |
